The supplement of paper PMC4604168 (melanoma cell lines)
Some of the results follow. Single values are uncertain, as repeats are few or missing.

Columns and labels:
Test in all cases: cell count relative to DMSO control; melanoma cells; higher = more viable cells
Details in all cases: library dose: low library concentration; 72 h
MZ2-MEL = system: MZ2-MEL
MeWo = system: MeWo
RPMI7951 = system: RPMI7951
RVH-421 = system: RVH-421
SkMel28 = system: SkMel28
SkMel30 = system: SkMel30
SkMel5 = system: SkMel5
UACC257 = system: UACC257
UACC62 = system: UACC62
WM115 = system: WM115
WM1716 = system: WM1716
WM1745 = system: WM1745
WM3526 = system: WM3526
WM3619 = system: WM3619
WM451Lu = system: WM451Lu
SkMel2 = system: SkMel2
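Note: cell number obtained by counting DAPI-stained nuclei in high-throughput microscope images with image analysis software, screen run in 1,536-well plates.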

SMILES	cell count (MZ2-MEL)	cell count (MeWo)	cell count (RPMI7951)	cell count (RVH-421)	cell count (SkMel28)	cell count (SkMel30)	cell count (SkMel5)	cell count (UACC257)	cell count (UACC62)	cell count (WM115)	cell count (WM1716)	cell count (WM1745)	cell count (WM3526)	cell count (WM3619)	cell count (WM451Lu)	cell count (SkMel2)
CCc1ccc(CCOc2ccc(CC3SC(=O)NC3=O)cc2)nc1 (stereo not drawn) [pioglitazone] + O=S(=O)(c1ccccc1)N(CC(F)(F)F)c1ccc(C(O)(C(F)(F)F)C(F)(F)F)cc1 [T0901317] (first compound 2 µM, partner dose 1.4 µM)	102%	98.4%	95.2%	148%	73.1%	93.1%	84.5%	74.5%	76%	92.4%	79%	81.5%	86.3%	109%	85.3%	
CCCCCCCCc1ccc(CCC(N)(CO)CO)cc1 [fingolimod] + Nc1cccc2c1CN(C1CCC(=O)NC1=O)C2=O [lenalidomide] (first compound 2 µM, partner dose 1 µM)	90.5%	90.8%	92.6%	91.6%	87.8%	99.5%			103%	88.2%	77%	83.2%	93.5%	74%	103%	92.6%
NC(=O)c1ccc(N(C(N)=O)c2c(F)cccc2F)nc1-c1ccc(F)cc1F + C#Cc1cccc(Nc2ncnc3cc(OCCOC)c(OCCOC)cc23)c1 [erlotinib] (first compound 0.4 µM, partner dose 0.8 µM)	89.7%	87.3%	79%	84.5%	81.9%	82.8%			73.6%	88.5%	84.3%	68.8%	96.3%	109%	68.8%	87.7%
NC(=O)c1ccc(N(C(N)=O)c2c(F)cccc2F)nc1-c1ccc(F)cc1F + C[C@]1(O)C[C@@H](c2nc(-c3ccc4ccc(-c5ccccc5)nc4c3)c3c(N)nccn32)C1 [OSI906] (first compound 0.4 µM, partner dose 0.4 µM)	92%	98.8%	94.7%	76.5%	75.3%	78.5%			96.5%	97.9%	112%	64.5%	89.4%	79.1%	101%	86.6%
NC(=O)c1ccc(N(C(N)=O)c2c(F)cccc2F)nc1-c1ccc(F)cc1F + CCCS(=O)(=O)Nc1ccc(F)c(C(=O)c2c[nH]c3ncc(Cl)cc23)c1F [PLX4720] (first compound 0.4 µM, partner dose 0.08 µM)	90.4%	85.9%	99.6%	78%	102%	99.1%			67.1%	93.5%	119%	83.6%	80.1%	85.7%	96%	97.6%
NC(=O)c1ccc(N(C(N)=O)c2c(F)cccc2F)nc1-c1ccc(F)cc1F + CC(=O)c1c(C)c2cnc(Nc3ccc(N4CCNCC4)cn3)nc2n(C2CCCC2)c1=O [palbociclib] (first compound 0.4 µM, partner dose 0.04 µM)	82.7%	102%	96.3%	84.9%	84.5%	102%			93.2%	83.1%	78.2%	82.1%	87.3%	54.5%	91.4%	81.6%
NC(=O)c1ccc(N(C(N)=O)c2c(F)cccc2F)nc1-c1ccc(F)cc1F + Nc1ccn([C@@H]2O[C@H](CO)[C@@H](O)C2(F)F)c(=O)n1 [gemcitabine] (first compound 0.4 µM, partner dose 0.0004 µM)	86.2%	106%	85.7%	72.3%	96.2%	98.9%			85.3%	104%	102%	60.4%	87.8%	71.4%	111%	102%
NC(=O)c1ccc(N(C(N)=O)c2c(F)cccc2F)nc1-c1ccc(F)cc1F + Cc1nc(Nc2ncc(C(=O)Nc3c(C)cccc3Cl)s2)cc(N2CCN(CCO)CC2)n1 [dasatanib] (first compound 0.4 µM, partner dose 0.004 µM)	86%	87%	62.6%	68.7%	75.3%	93.1%			89.1%	78.9%	89.2%	77.7%	82.2%	86.3%	67.6%	104%
NC(=O)c1ccc(N(C(N)=O)c2c(F)cccc2F)nc1-c1ccc(F)cc1F + COc1ccc(C2=N[C@@H](c3ccc(Cl)cc3)[C@@H](c3ccc(Cl)cc3)N2C(=O)N2CCNC(=O)C2)c(OC(C)C)c1 [Nutlin-3] (first compound 0.4 µM, partner dose 0.1 µM)	105%	95.8%	95.2%	88.4%	82.3%	97.1%			81%	89.8%	90.2%	89.7%	92.7%	104%	95.3%	95%
NC(=O)c1ccc(N(C(N)=O)c2c(F)cccc2F)nc1-c1ccc(F)cc1F + Cn1nnc2c(C(N)=O)ncn2c1=O [temozolomide] (first compound 0.4 µM, partner dose 2 µM)	93.8%	97.2%	97.1%	74.7%	88.9%	92.4%			80.5%	92.7%	90.2%	102%	87.7%	122%	88.3%	98%
CCCCCCCCc1ccc(CCC(N)(CO)CO)cc1 [fingolimod] + CCCS(=O)(=O)Nc1ccc(F)c(C(=O)c2c[nH]c3ncc(Cl)cc23)c1F [PLX4720] (first compound 2 µM, partner dose 0.08 µM)	81.2%	90.4%	95.1%	85.5%	74.7%	98.8%			61.9%	85.3%	109%	87.1%	63.9%	94.4%	91.6%	90.2%
NC(=O)c1ccc(N(C(N)=O)c2c(F)cccc2F)nc1-c1ccc(F)cc1F + Cn1c(Nc2ccc(C(F)(F)F)cc2)nc2cc(Oc3ccnc(-c4ncc(C(F)(F)F)[nH]4)c3)ccc21 [CHIR265] (first compound 0.4 µM, partner dose 0.08 µM)	97.3%	90.3%	61.9%	91%	82.7%	87%			67.7%	65.5%	112%	81.9%	74.6%	92.5%	162%	101%
CCCCCCCCc1ccc(CCC(N)(CO)CO)cc1 [fingolimod] + C#Cc1cccc(Nc2ncnc3cc(OCCOC)c(OCCOC)cc23)c1 [erlotinib] (first compound 2 µM, partner dose 0.8 µM)	105%	77.3%	67%	99.1%	94.9%	70.3%			74.5%	108%	75.8%	71.4%	99.9%	80.1%	94.4%	99.6%
CCCCCCCCc1ccc(CCC(N)(CO)CO)cc1 [fingolimod] + Cn1nnc2c(C(N)=O)ncn2c1=O [temozolomide] (first compound 2 µM, partner dose 2 µM)	95.4%	86.4%	82.4%	118%	93.6%	92.2%			70.3%	96.1%	75.9%	69.4%	99.9%	99.1%	75.7%	96.5%
CN(NC(=O)CC(=O)NN(C)C(=S)c1ccccc1)C(=S)c1ccccc1 + CCCCCCCCCCCC1=C(O)C(=O)C=C(O)C1=O [Embelin] (first compound 0.006 µM, partner dose 1.2 µM)	98.6%	108%	99.5%	93.2%	106%	106%	101%	82%	98.3%	92.9%	84.2%	50%	93%	84.1%	104%	
CCCCCCCCc1ccc(CCC(N)(CO)CO)cc1 [fingolimod] + CC(=O)O[C@@]12CO[C@@H]1C[C@H](O)[C@@]1(C)C(=O)[C@H](O)C3=C(C)[C@@H](OC(=O)[C@H](O)[C@@H](NC(=O)OC(C)(C)C)c4ccccc4)C[C@@](O)([C@@H](OC(=O)c4ccccc4)[C@H]21)C3(C)C [Docetaxel] (first compound 2 µM, partner dose 0.0001 µM)	73.8%	66.6%	46.4%	90.9%	67.8%	56.1%			58.9%	75.4%	55.2%	63.6%	58%	85.8%	75.2%	59.1%
NC(=O)c1ccc(N(C(N)=O)c2c(F)cccc2F)nc1-c1ccc(F)cc1F + CN(c1ncccc1CNc1nc(Nc2ccc3c(c2)CC(=O)N3)ncc1C(F)(F)F)S(C)(=O)=O [PF562271] (first compound 0.4 µM, partner dose 0.08 µM)	89.3%	94.6%	70.8%	85.4%	66.2%	86.5%			99.2%	78.4%	82.8%	84.9%	85.9%	89.1%	84.8%	88.5%
NC(=O)c1ccc(N(C(N)=O)c2c(F)cccc2F)nc1-c1ccc(F)cc1F + Cc1cc(Nc2cc(N3CCN(C)CC3)nc(/C=C/c3ccccc3)n2)n[nH]1 [ENMD2076] (first compound 0.4 µM, partner dose 0.04 µM)	108%	89.2%	108%	85%	81.4%	87.5%			100%	101%	101%	92.4%	90.4%	140%	86.1%	100%
CCCCCCCCc1ccc(CCC(N)(CO)CO)cc1 [fingolimod] + Nc1ncn([C@H]2C[C@H](O)[C@@H](CO)O2)c(=O)n1 [decitabine] (first compound 2 µM, partner dose 0.1 µM)	85%	88.9%	55.2%	81.4%	71.6%	105%			77.7%	82.1%	60.4%	78.4%	74.4%	80.2%	80.5%	88.8%
Cc1ccc(NC(=O)c2cccc(N(C)C)c2)cc1NC(=O)c1ccc(O)cc1 + c1cc(-c2cnn3cc(-c4ccc(OCCN5CCCCC5)cc4)cnc23)ccn1 [Dorsomorphin] (first compound 2 µM, partner dose 0.4 µM)	74.6%	94.4%	82.6%	90.6%	91.9%	119%	83.7%	89%	88.6%	97.8%	98.2%	83%	114%	83%	101%	
